{"source": "ChEMBL document CHEMBL4888484", "about": "“Replenishing the malaria drug discovery pipeline: Screening and hit evaluation of the MMV Hit Generation Library 1 (HGL1) against asexual blood stage Plasmodium falciparum ,using a nano luciferase reporter read-out” (2022)", "note": "About 540 (0.36%) of roughly 150,000 compounds showed an effect of 50% or more. This is one part of the list."}
{"tested_on": "Plasmodium falciparum", "assay": "Primary screen in NF54 nanoGlo assay, in single point, at 2uM, 72h; a lower Z score goes with more inhibition", "type": "functional, Erythrocyte", "conditions": "timepoint 72 hour", "units": {"% Inhibition": "%"}}
{"smiles": "Cc1cccc(NC(=O)CN(C)c2nnnn2-c2ccccc2)c1C", "% Inhibition": -7, "Z score": 0.84}
{"smiles": "Cc1ncnc2c1ncn2-c1cncc(C(N)=O)c1", "% Inhibition": 1, "Z score": -0.18}
{"smiles": "O=C(CCc1nnc2ccc(N3CCCCC3)nn12)Nc1ccc2c(c1)OCCO2", "% Inhibition": 0, "Z score": 0.05}
{"smiles": "O=C1NC(C2CC2)(C2CC2)C(=O)N1Cc1cc(-c2ccccc2)on1", "% Inhibition": -2, "Z score": 0.4}
{"smiles": "CC(C)(C)OC(=O)NCC[C@H](NC(=O)C1CC(=O)C1)C(F)(F)F", "% Inhibition": -5, "Z score": 0.85}
{"smiles": "CCCN1CCC[C@H]1c1nc(Cc2cccnc2)no1", "% Inhibition": -1, "Z score": 0.07}
{"smiles": "Cn1c(CO)nnc1[C@H]1C[C@H](NC(=O)Cc2cccs2)C1", "% Inhibition": -9, "Z score": 1.2}
{"smiles": "COCCN1CCC[C@@]2(CCN(C/C(C)=C/c3ccco3)C2)C1", "% Inhibition": -19, "Z score": 2.68}
{"smiles": "c1n[nH]cc1C1CCCN1CCOC1CCCCO1", "note": "(stereo not drawn)", "% Inhibition": -5, "Z score": 0.73}
{"smiles": "CCN(CC)c1cc(CCC(=O)NCc2ccc(F)cc2F)ccn1", "% Inhibition": 8, "Z score": -1.07}
{"smiles": "CC(C)C(=O)N1CCC([C@@H]2CN(C(=O)Cc3cccc(Cl)c3)C[C@H]2CO)CC1", "% Inhibition": 10, "Z score": -1.11}
{"smiles": "c1ccc([C@@H]2COc3ccccc3N2)cc1", "% Inhibition": 2, "Z score": -0.29}
{"smiles": "CC1(C)CN(CCS(N)(=O)=O)C1(C)C", "% Inhibition": -3, "Z score": 0.41}
{"smiles": "O=C(NCc1ccc2c(c1)OCO2)[C@@H]1CCN(c2ccc(Cl)c(Cl)c2)C1=O", "% Inhibition": -6, "Z score": 1.17}
{"smiles": "CCOc1ccc(NC(=O)C[C@H]2C(=O)N(Cc3ccccc3)CCN2Cc2ccccc2)cc1", "% Inhibition": -7, "Z score": 1.03}
{"smiles": "Cc1ccc(NC(=O)Cn2c3cc(F)ccc3c(=O)n2C(C)(C)C)cc1F", "% Inhibition": -4, "Z score": 0.53}
{"smiles": "CCOc1ccc(OCc2nc([C@H]3CC34CCC4)n(C(C)C)n2)cc1", "% Inhibition": -3, "Z score": 0.62}
{"smiles": "O=C(COc1ccc(F)cc1)N1CC[C@H](Oc2ncccc2C(=O)N2CCCCC2)C1", "% Inhibition": -7, "Z score": 1.13}
{"smiles": "c1ccc2c(N3CCOCC3)nnc(N3CCCC3)c2c1", "% Inhibition": -7, "Z score": 1.05}
{"smiles": "CC(C)[C@H](CNC(=O)Nc1ccc2sncc2c1)c1cccnc1", "% Inhibition": -9, "Z score": 1.33}
{"smiles": "FC(F)(F)C1(C(F)(F)F)N=C(c2ccccc2)NC(c2ccccc2)=N1", "% Inhibition": -43, "Z score": 5.09}
{"smiles": "CN1Cc2ccccc2N(CC(=O)NCc2ccccc2)C1=O", "% Inhibition": 1, "Z score": -0.11}
{"smiles": "COc1ccc(Cn2cc([C@H](CC(=O)N3CCCC3)c3ccc(OCc4ccccc4)c(OC)c3)c3ccccc32)cc1", "% Inhibition": -12, "Z score": 1.57}
{"smiles": "Cc1nc(C(C)C)oc1CN1CCCC[C@H]1c1nccs1", "% Inhibition": -10, "Z score": 1.67}
{"smiles": "CCN1CCN(C(=O)c2ccc(CN3C(=O)COc4ccc(C(=O)COc5ccccc5C)cc43)o2)CC1", "% Inhibition": -7, "Z score": 0.83}
{"smiles": "c1nc(NCc2cc3n(n2)CCCN(C2CCCCC2)C3)c2nc[nH]c2n1", "% Inhibition": -10, "Z score": 2.15}
{"smiles": "CCn1ncc(-c2cc(C(F)F)nc(NC[C@H](C)Cn3ccc(C)n3)n2)c1C", "% Inhibition": 2, "Z score": -0.32}
{"smiles": "CCOC(=O)c1cccnc1-c1cccc(C(=O)N2CCNC(=O)CC2)c1", "% Inhibition": -9, "Z score": 1.82}
{"smiles": "CC(C)(C)c1noc(CNC(=O)[C@@H]2CC[C@H](C(=O)O)C2)n1", "% Inhibition": -4, "Z score": 0.64}
{"smiles": "CCc1nnc(N2CCC(OCc3cccnc3)CC2)o1", "% Inhibition": -2, "Z score": 0.34}
{"smiles": "CCn1c(CN2CCC[C@@H]2C(=O)O)nc2cc(F)ccc21", "% Inhibition": 1, "Z score": -0.21}
{"smiles": "O=C(N[C@@H](c1ccsc1)c1cccs1)c1cccc2ccccc12", "% Inhibition": -9, "Z score": 1.59}
{"smiles": "CCc1nnc(CNC(=O)Nc2ccc3c(c2)C(=O)C[C@](C)(CC)O3)o1", "% Inhibition": -8, "Z score": 1.55}
{"smiles": "CCC(CC)c1nc(C#N)c(N2CCN(c3cccc(Cl)c3)CC2)o1", "% Inhibition": -8, "Z score": 1.65}
{"smiles": "CN(CC1(CO)CC1)C(=O)c1cnn2cccc(Br)c12", "% Inhibition": 0, "Z score": 0.07}
{"smiles": "O=C(Nc1ccccn1)c1cc2n(n1)CCCO2", "% Inhibition": -20, "Z score": 3.07}
{"smiles": "CC(C)[C@@H]1C[C@H]1CNC(=O)NCC1C(C)(C)C1(F)F", "note": "(stereo partly drawn)", "% Inhibition": -9, "Z score": 1.74}
{"smiles": "Cc1cc(NC(=O)C(=O)NC[C@H](C)O)no1", "% Inhibition": 6, "Z score": -0.8}
{"smiles": "O=C(N[C@H]1CCc2ccccc21)c1cn[nH]c1C(F)(F)F", "% Inhibition": 4, "Z score": -0.47}
{"smiles": "O=C(NCCCn1cccn1)c1ccc2[nH]c3c(c2c1)CN(C(=O)C1CCC1)CC3", "% Inhibition": -3, "Z score": 0.48}
{"smiles": "FC(F)(F)c1cc(CNC2CCCCC2)no1", "% Inhibition": 11, "Z score": -1.43}
{"smiles": "CCC1(S(=O)(=O)NC(=O)C2CCCC(OC)C2)CC1", "note": "(stereo not drawn)", "% Inhibition": -14, "Z score": 1.39}
{"smiles": "O=C(NC[C@@H](O)Cc1ccccc1F)c1cc(Br)c2nccn2c1", "% Inhibition": -2, "Z score": 0.33}
{"smiles": "O=C(Cn1nc2c(N3CCCCCC3)nccn2c1=O)NCCC1=CCCCC1", "% Inhibition": -9, "Z score": 0.84}
{"smiles": "CCNC(=O)[C@@H]1C[C@H](N)CN1C(=O)c1scc2c1CCCC2", "% Inhibition": -1, "Z score": 0.18}
{"smiles": "CCn1ccc(C(=O)Nc2cc(-c3cc4ccc(OC)cc4n3CC)n[nH]2)n1", "% Inhibition": 7, "Z score": -0.74}
{"smiles": "Cn1nc(C(=O)N2CCC[C@@]3(CCC(=O)N(CCc4c[nH]cn4)C3)C2)ccc1=O", "% Inhibition": -5, "Z score": 0.74}
{"smiles": "COc1cc2c(cc1OC)CN(C(=O)C1(c3ccc(C)cc3)CCOCC1)CC2", "% Inhibition": 6, "Z score": -0.65}
{"smiles": "Cc1nc(C(=O)N(Cc2cc(F)ccc2F)C2CCCC2)c(=O)[nH]c1C", "% Inhibition": -2, "Z score": 0.24}
{"smiles": "Clc1cccc(CNCc2cccnc2-n2cccn2)c1", "% Inhibition": 19, "Z score": -2.24}
{"smiles": "CC(C)(C)n1c(=O)c2ccc(Cl)cc2n1CC(=O)NCc1ccc(F)cc1", "% Inhibition": 1, "Z score": -0.22}
{"smiles": "CC(C)CN1CCO[C@@H](COC(=O)c2cn3ccnc3s2)C1", "% Inhibition": -10, "Z score": 1.07}
{"smiles": "Cn1cccc1C(=O)C(=O)NC[C@@]1(C)CCCO1", "% Inhibition": -2, "Z score": 0.28}
{"smiles": "OCc1ccc(-c2ncnn2-c2ccc3c(c2)CCC3)o1", "% Inhibition": -5, "Z score": 0.48}
{"smiles": "O=C(C1CCCO1)N1CCCCC1c1nc2ccccc2o1", "note": "(stereo not drawn)", "% Inhibition": 1, "Z score": -0.11}
{"smiles": "COc1ccc(C(NS(=O)(=O)N2CCC(C)CC2)[C@H]2C[C@@H](O)C2)cn1", "note": "(stereo partly drawn)", "% Inhibition": -2, "Z score": 0.2}
{"smiles": "COCC1(NC(=O)CCS(C)(=O)=O)CCCC1", "% Inhibition": -10, "Z score": 1.24}
{"smiles": "COc1cc2c(cc1OC)CC(=O)N(CC(=O)Nc1cc(F)c(F)c(F)c1)C=C2", "% Inhibition": -3, "Z score": 0.3}
{"smiles": "O=C(O)c1ccc(-n2ccnc2-c2ccc(O)cc2)c(F)c1", "% Inhibition": 0, "Z score": 0.06}
{"smiles": "C=Cc1cccc(-c2cn(CC3(O)CCCCC3)nn2)c1", "% Inhibition": -13, "Z score": 1.43}
{"smiles": "O=C1CN(C(=O)CN2CCC[C@H]2c2ccc3c(c2)OCCCO3)c2ccccc2N1", "% Inhibition": -2, "Z score": 0.46}
{"smiles": "CO[C@@]12CC[C@@H](NC(C)=O)C[C@@H]1N(C(=O)Cc1ccc(O)c(Cl)c1)CC2", "% Inhibition": -5, "Z score": 0.63}
{"smiles": "CC1(O)CCN(C[C@@H](C(=O)OC(C)(C)C)c2ccccc2)CC1", "% Inhibition": -6, "Z score": 1.22}
{"smiles": "CC(C)CCO[C@@H]1CCCC[C@H]1NC(=O)C1CCc2cnn(C)c2C1", "note": "(stereo partly drawn)", "% Inhibition": -15, "Z score": 2.2}
{"smiles": "Cc1onc(C(=O)N2CCCCCCNC(=O)[C@@H]3CCCC[C@@H]32)c1Cn1cccn1", "% Inhibition": -7, "Z score": 0.98}
{"smiles": "Cc1noc(C)c1CN(C)CN1C(=O)NC(C2CC2)(C2CC2)C1=O", "% Inhibition": -8, "Z score": 1.13}
{"smiles": "CCC1(CC)CCCN(Cc2nnc(C)n2C)CC1", "% Inhibition": -10, "Z score": 1.4}
{"smiles": "CC1=C(C(=O)NCCc2csc(-c3ncccn3)n2)OCCO1", "% Inhibition": 1, "Z score": -0.23}
{"smiles": "COCCNCc1cc(Cl)ccc1OC", "% Inhibition": -4, "Z score": 0.45}
{"smiles": "CCOC(=O)C1=C(c2ccccc2)SC(=C2C(=S)C(C)(C)Nc3cc(C)ccc32)S1", "% Inhibition": -2, "Z score": 0.37}
{"smiles": "NC(=O)c1csc(-c2cc(N)nc3[nH]ccc23)n1", "% Inhibition": 2, "Z score": -0.4}
{"smiles": "C[C@H](NC(=O)c1cc(F)ccc1O)C(=O)N1CCCCC1", "% Inhibition": -8, "Z score": 0.86}
{"smiles": "CC(C(=O)NCC1COc2ccccc2O1)N1C2CCC1CC(O)C2", "note": "(stereo not drawn)", "% Inhibition": -11, "Z score": 2.2}
{"smiles": "CCCNC(=O)NC(=O)COc1cc(C)ccc1C", "% Inhibition": -4, "Z score": 0.49}
{"smiles": "COc1ccc(S(=O)(=O)N2CCC3(CCC(=O)N3C)CC2)cc1Cl", "% Inhibition": -1, "Z score": 0.17}
{"smiles": "O=C(NCC1(c2ccsc2)CCOCC1)C1CCC1", "% Inhibition": 5, "Z score": -0.85}
{"smiles": "CN1C(=O)[C@@]23CCCCN2C[C@@]12C[C@@]1(C(=O)Nc4c1ccc1c4OC=CC(C)(C)O1)C(C)(C)[C@@H]2C3", "% Inhibition": 30, "Z score": -3.44}
{"smiles": "N#Cc1cnn(C(=O)c2cccc(S(=O)(=O)Nc3cccc(Cl)c3)c2)c1N", "% Inhibition": 0, "Z score": 0.03}
{"smiles": "c1ccc(-c2c[nH]nc2N2CCOCC2)cc1", "% Inhibition": 35, "Z score": -2.21}
{"smiles": "Cn1c(-c2nccn2[C@H]2CC(=O)N(Cc3ccccc3)C2)nc2ccccc21", "% Inhibition": 4, "Z score": -0.79}
{"smiles": "CN(C(=O)c1ccn(C)c(=O)c1)c1ccc(N2CCOCC2)nc1", "% Inhibition": -3, "Z score": 0.32}
{"smiles": "Cc1ccc2ncccc2c1-c1nccn1Cc1ccco1", "% Inhibition": -17, "Z score": 2.31}
{"smiles": "CCC(Oc1ccc2c(c1)C(c1ccccc1)N(C(C)=O)CC2)C(=O)NCC1CC1", "note": "(stereo not drawn)", "% Inhibition": -5, "Z score": 0.61}
{"smiles": "O=C(O)c1nnn(-c2ccccc2Cl)c1-c1ccccn1", "% Inhibition": -10, "Z score": 1.12}
